Measurements published in article PMC12136788.
Some of the results follow.

T1: UNK ZnF1-3 (human, UniProt Q9C0B0 31-174)
T1 sequence: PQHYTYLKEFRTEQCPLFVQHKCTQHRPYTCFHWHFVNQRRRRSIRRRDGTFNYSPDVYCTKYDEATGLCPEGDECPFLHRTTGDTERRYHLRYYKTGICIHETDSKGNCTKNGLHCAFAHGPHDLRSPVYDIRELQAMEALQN

B1: 32953677_32953797_881_CDS_ENSG00000060749_ENST00000399302|human|control|control (ssRNA)
RNA: GGGAGUUCUACAGUCCGACGAUCCUGAAUUGACUGGGUACCUGAAGGCCGCUGAUGGUGUUUAAUAACACUACAUUCUCGAAGAAGAGCUCUUUCAAUGGAAGCAGUAGAACUAGUAAAGAGAGUUGAACUGUAGGCUUGAGGCAACAGAGGAUUGAGCAUCA
B2: chr7:135832182:135832183:+_ENSMUSG00000042105_ENSMUST00000118605|mus_hu|FALSE|FALSE (ssRNA)
RNA: GGGAGUUCUACAGUCCGACGAUCAACAAUGGUCGCAUAAAAGCCGCUGUCUUCAGGGGACAUCAACAUCAGACUUUGGAAAAGAAGUAAUUUGCAGGAAAAAUAUAACCCCACAGGAACUUUAACCAUAAGCCCUGCAAAAAGCAACAGAGGAUUGAGCAUCA
B3: chr22:32879901:32879902:+_ENSG00000100225_ENST00000397426|hu_mus|hu_hu_hu_mus_False|38_78 (ssRNA)
RNA: GGGAGUUCUACAGUCCGACGAUCCUCUUCCAUACUCAUGGCAUCCUGAAUUGACUCAGCUUCAAAAUUUUGACUAGGCCCUUCCAUACUGUCAUCAUUCCAAACACCAAAUGGGGUGGCCUGUCCUUGGGAUGAAUCAGUCCCCAACAGAGGAUUGAGCAUCA
B4: chr1:145592185:145592186:+_ENSMUSG00000018196_ENSMUST00000111957|mus_hu|FALSE|FALSE (ssRNA)
RNA: GGGAGUUCUACAGUCCGACGAUCUGCCAUUGUACAGUAAGAACAGGAUGUUUUUGAGAAAAUCACCACACAAUUAUCAGAAAUUGUUUCUUGGAUCUGGUUCACAGGCGCCGUCGCUAAAUUCUCCAAAGAUGAUGAUGUAUUCAACAGAGGAUUGAGCAUCA
B5: chr10:36853155:36853156:-_ENSMUSG00000069662_ENSMUST00000092584|mus_mus|FALSE|FALSE (ssRNA)
RNA: GGGAGUUCUACAGUCCGACGAUCUUCUUAUAAUCCAGAGUGUUCAUAACCACAGCAAAGGCCACUGCACACACUGCCAAUACAGACUUAAUAACACGAUUCUCAACUGUACAAGAGUUAUUUAUUUUCCUUAAUCUCAAAGCUCAACAGAGGAUUGAGCAUCA
B6: 82409263_82409383_1284_CDS_ENSG00000117114_ENST00000335786|human|control|control (ssRNA)
RNA: GGGAGUUCUACAGUCCGACGAUCUUGGUUAUCUCUUGGAUUGUAAUCCACUGCAGCAAUAUACUGAUACUGGUUGGGGAAGGGAACAUCUACAUAUUCUCCUCGGUUUAAUCGGGUAUUAUAAAUGUAAUCAAUUGAGUUCUUCAACAGAGGAUUGAGCAUCA
B7: 78574142_78600914_1522_CDS_ENSG00000149256_ENST00000278550|human|control|control (ssRNA)
RNA: GGGAGUUCUACAGUCCGACGAUCCUGCAGGUGCCAGUUUAGGCCAAACAGGUGCAUGGCCACAAAGUAUGCCAGCAGGAUGACCAGAGUGGCUGAGAUGACGAUGGCGCUCAGGGCUGCGCACUUCCAGUUACAGUACUUGGACAACAGAGGAUUGAGCAUCA
B8: chr1:244855233:244855234:+_ENSG00000121644_ENST00000302550|hu_mus|hu_hu_hu_mus_True|98_108 (ssRNA)
RNA: GGGAGUUCUACAGUCCGACGAUCCAUUAAAUGAUAAGCAUUGCCUUUAUACUCUUUCCCCAGUUCUUCUACAAUUUUCUCUAUAUCAUCUUCUAGAAAGUCCGUACUUCCUAGAACAACAGCUUCUUUAAAUUUAAAUGUUUCCAACAGAGGAUUGAGCAUCA
B9: chr16:18284709:18284710:-_ENSMUSG00000022718_ENSMUST00000009321|mus_mus|motif|central (ssRNA)
RNA: GGGAGUUCUACAGUCCGACGAUCAACCACUGCCUCAAUUAUUGGAAAUCACAAUGCACUCAGCUUAAAAGAUUGACGUCGGAGUGAGUCUAUCUUCAUGCCAAAGUGGCACCUUUCUUCUUCCACCUGUGGCGCCCGCGACCUCAACAGAGGAUUGAGCAUCA
B10: 12706174_12707393_3387_CDS_ENSMUSG00000031010_ENSMUST00000089302|mouse|control|control (ssRNA)
RNA: GGGAGUUCUACAGUCCGACGAUCUUGCCAAAGGAAAGAGAUGUAUCUGGGAUGAAGUGACAUUAUCACUCCAGGCAAACAACUUUCCACUUCUGGAUUGGGGCCAUCACUGUAAUGAUUACCAUGAUUUCCAGGAGAUCCAGUCAACAGAGGAUUGAGCAUCA
B11: chr1:163117127:163117128:-_ENSG00000143248_ENST00000313961|hu_mus|hu_hu_hu_mus_False|18_48 (ssRNA)
RNA: GGGAGUUCUACAGUCCGACGAUCUGCUACAAAGGAUGUAACUCAACUCACAGGGCAACUUUUGGAAGCCUGACCAGAUGACUACUUGAUUAACUCCUUAUAAAAUUCAGAGCGCACAAAGCGAGGCAGAGAAUCCUUCUCCAUCAACAGAGGAUUGAGCAUCA
B12: chr6:114281168:114281169:-_ENSG00000196591_ENST00000368632|hu_hu|hu_hu_hu_mus_True|8_78 (ssRNA)
RNA: GGGAGUUCUACAGUCCGACGAUCUUCCAUUUUUCGGUAUAAACCAUAAUUUAGCAGCAAGUUAUGGGUCAUCCGGAUUCUAUGAGGCUUCAUGGGAUGACCCUGGCCAUAAUAAUAAUUGCCAAUAUCACAGAUUCAGUAGUACAACAGAGGAUUGAGCAUCA
B13: chr7:65705844:65705845:+_ENSG00000169902_ENST00000304842|hu_mus|hu_hu_hu_mus_False|78_108 (ssRNA)
RNA: GGGAGUUCUACAGUCCGACGAUCAAAAGGAUCUUUAUUACAUAAAUAAGGUGCCGGCUCCCCAUGCUUAACAAUGACCUCCAGAAGGAAGGCUUGCAUGGCAGAAUCUAGCACUUCAUCUGUGACACCCGCCUCAUCCAAGCGCAACAGAGGAUUGAGCAUCA
B14: chr7:149068622:149068623:-_ENSMUSG00000025139_ENSMUST00000001950|mus_hu|mus_mus_mus_hu_False|1_58 (ssRNA)
RNA: GGGAGUUCUACAGUCCGACGAUCGUGAGGCCUCUGAGUGUGGCUUGUGGUCUGUCCUGGGUUAGAGUUGUUAAUAUCACUAAGUGGACCAUCUAGAACGUUCCAGUCCCGCCUGACACCUUCAUUCCCAAUGGAGAAUCUGCUCAACAGAGGAUUGAGCAUCA
B15: 86748150_86749805_1536_CDS_ENSMUSG00000035671_ENSMUST00000039480|mouse|control|control (ssRNA)
RNA: GGGAGUUCUACAGUCCGACGAUCGACACCAGUAGCACCUUUCUGGAGCAGUUCUUUUUUCUGCUGCUUGUAGCUCUCAAGCUGGUGUCGCCUCUGCAGGCGCAGGGUGUUGAUUAUGGCACACGCCAGCCGCAGAGCCUUGUGCAACAGAGGAUUGAGCAUCA
B16: chr11:50626376:50626377:-_ENSMUSG00000044807_ENSMUST00000109135|mus_hu|FALSE|FALSE (ssRNA)
RNA: GGGAGUUCUACAGUCCGACGAUCAAAUCCUUCGUUAGUACAAUGAAAGGCUAUAAUUAAACUAAAAUCUCUCCUGGCUCUAAUGAGCUACCAGACAUGCAGCCUGAGAUUCUGCCAAAUACAUCCCUUCUGCAACAGAUAACACAACAGAGGAUUGAGCAUCA
B17: 71115185_71126082_151_3pUTR_ENSMUSG00000031391_ENSMUST00000102871|mouse|control|control (ssRNA)
RNA: GGGAGUUCUACAGUCCGACGAUCAUUCCACUCACCCUCCUGCUGGUGGUUUGUUUCCAGCGGUAGCUGCUGACAGGGGCGGGGGGGGGGCGUACUGCGCCGAUCAGGUUGCCAGCUCAGUCUCUGUGCACGCCGACCUCGGACCAACAGAGGAUUGAGCAUCA
B18: 53190817_53190937_963_CDS_ENSG00000177200_ENST00000398510|human|control|control (ssRNA)
RNA: GGGAGUUCUACAGUCCGACGAUCUGAAAAGGAAUUACUUCCAGUAAAAUCAGAUAAAGUCUGAUUUGUAUGAUUAGAUGCAAGAACUGCAGAGGACUGAAGUAGACUGUUUGGUGAUAUAUGAUUACUGGAAAAGGAAUAAUGCAACAGAGGAUUGAGCAUCA
B19: 58143647_58144814_1295_CDS_ENSG00000068097_ENST00000184956|human|control|control (ssRNA)
RNA: GGGAGUUCUACAGUCCGACGAUCAAAAGCUGACCAGUAGCCAUAAAGAACUUUUUUUUCUAUCGAUUUUAUAGUAGAAAGAAAACAAACUAAGGCUCCUUGGCGAACUUUAGCUUGGUAAGACCUCAUUUUACUCUGCAUGCCCAACAGAGGAUUGAGCAUCA
B20: 90990506_90993036_620_3pUTR_ENSG00000104320_ENST00000265433|human|control|control (ssRNA)
RNA: GGGAGUUCUACAGUCCGACGAUCUUCUGGCUUUACAAUUGGACGUCCACAAAUGAGUGCACAUAUUGUUUUAAUGGUAACUUUCACUGAUACCAUGACAAGGUGAGUGCAUUCUUCUGUCCAAUUGUUUACAGUAAAUCCUCCCAACAGAGGAUUGAGCAUCA
B21: chr17:56552419:56552420:-_ENSMUSG00000013236_ENSMUST00000086828|mus_mus|mus_mus_mus_hu_False|8_58 (ssRNA)
RNA: GGGAGUUCUACAGUCCGACGAUCAAAAAAUACACUAUUUAAAAAAAAUGAAAUGUCACGGGAUACAGUUACACUGACACUAUUAAAAGAAAGCUGGAUUCUGGUCCCAGCCCAGUGUCCCCAGGCUGAGUGCGGAAGAGGAGCCAACAGAGGAUUGAGCAUCA
B22: chr10:62545423:62545424:+_ENSG00000170312_ENST00000395284|hu_hu|motif|central (ssRNA)
RNA: GGGAGUUCUACAGUCCGACGAUCAAACUCAAAGAUGAGAUAUAACCUGGAAUCCUGCAUAAGCACAUCCUGAAGACUGACGGUAUUUGGAUGACGAAGUUCCUUUAAUAGAGAAAUUUCCCGAAUUGCAGUACUAGGAACCCCCAACAGAGGAUUGAGCAUCA

biological target: T1, UNK ZnF1-3; assay: nsRBNS (natural sequence RNA bind-n-seq); RBNS binding buffer (assumed for nsRBNS): 25 mM Tris pH 7.5, 150 mM KCl, 3 mM MgCl2, 0.01% Triton X-100, 500 ug/ml BSA, 20 U/ml SUPERase-In, 4 C; UNK is unkempt and MSI1 is Musashi-1; names of the RNAs are library labels; protein concentration not given here; high values mean tight binding

Binder	binding signal
B1	1.53 enrichment R
B2	2.01 enrichment R
B3	1.02 enrichment R
B4	0.952 enrichment R
B5	1.34 enrichment R
B6	1.12 enrichment R
B7	1.36 enrichment R
B8	1.14 enrichment R
B9	1.2 enrichment R
B10	1.03 enrichment R
B11	1.16 enrichment R
B12	0.812 enrichment R
B13	0.468 enrichment R
B14	0.86 enrichment R
B15	0.512 enrichment R
B16	0.964 enrichment R
B17	1.34 enrichment R
B18	1.92 enrichment R
B19	0.699 enrichment R
B20	0.431 enrichment R
B21	2.64 enrichment R
B22	1.11 enrichment R
